# The list shows a part of the results.
# B1: chr20:64048168:64048962:-|CDS|ENSG00000203883|control|control|control (ssRNA)
# RNA: GGGAGUUCUACAGUCCGACGAUCCCGCAAGAAGCAGGCGCGCAAGGCCCGGCGGCUGGAGCCCGGCCUCCUGCUCCCGGGAUUAGCGCCCCCGCAGCCACCGCCCGAGCCUUUCCCCGCGGCGUCUGGCUCGGCUCGCGCCUUCAACAGAGGAUUGAGCAUCA
# B2: chr9:137030712:137031725:-|CDS|ENSG00000180549|control|control|control (ssRNA)
# RNA: GGGAGUUCUACAGUCCGACGAUCCUGCCCCUGGCCCAGCGGCCGCGAGGGCAGCCCUGGGUGUGGGCCUCCAUGGAGUCUCCUAGCCACACCCACGGCCUCAGCCACCUCCGAGGCAUCUUCAACUGGGUGCUGAGCUACCGGCAACAGAGGAUUGAGCAUCA
# B3: chr17:58089832:58089920:+|3pUTR|ENSG00000264364|msi1_unk|FALSE|overlapping (ssRNA)
# RNA: GGGAGUUCUACAGUCCGACGAUCAUUCCACUGAACUGUGAUUCUAUGGCUUGGGGCGGAGGGUGGGGUGGGGAUGCCUUCUUUAGGGGCCCUGAGAUGUGUUUGUCUGUGGUGUGUGGGAGUGGGGAGCAGAUUUGUCUUGCUCAACAGAGGAUUGAGCAUCA
# B4: chr6:109001311:109001429:-|CDS|ENSG00000080546|unk|total|mutant (ssRNA)
# RNA: GGGAGUUCUACAGUCCGACGAUCUGCUGCUUUGGGCCGUUUGGAUAACAUUACGUCCGUGAUGGUUUUCCACCCACAAUAUUCCGAAAGUUUCUUAAAAACUCAGCACUAUCUACUGCAAAUGGAUGGGCCGUUACCCCUACACAACAGAGGAUUGAGCAUCA
# B5: chr20:3868059:3868160:+|3pUTR|ENSG00000088888|unk|FALSE|bound_elsewhere (ssRNA)
# RNA: GGGAGUUCUACAGUCCGACGAUCUCAGCCUCCAGGGAUCUACACCCUGCCUUGGCUGCUACAGCUUUUUCACUCCACUGCCCUAGGGGAGUUCAGCAACCUAAUGAUCUCUAUCUCUGAACAUCUCUUCAUCCCAUGCUCCAACAACAGAGGAUUGAGCAUCA
# B6: chr10:88913158:88913259:+|CDS|ENSG00000138134|unk|total|mutant (ssRNA)
# RNA: GGGAGUUCUACAGUCCGACGAUCGCAUCAGAGAUUGACCGAGGCAGAAAGGAAGCGGAUUGCUCAGAUGCGCCAGCAGCAGCCCGAAUCGGAGCAGUUUCUGUUUUUCGAAGAUCAACUCAAGAAGCAAGAGUCCGCCCGAGGCAACAGAGGAUUGAGCAUCA
# B7: chr12:48342538:48342639:-|3pUTR|ENSG00000167528|unk|total|mutant (ssRNA)
# RNA: GGGAGUUCUACAGUCCGACGAUCUUGUUAAACAUUUUGAGUAUCACUCUUGCAUACUGUUACUAUUAUAUUUUCUCUAUAUACCGACAGAAAGGCCAUUUCCGAAUAUUAAAGGCUCUGAAAAUUUCUGCAGCCGACCCAACUCAACAGAGGAUUGAGCAUCA
# B8: chr15:48878618:48878734:+|CDS|ENSG00000255302|unk|total|mutant (ssRNA)
# RNA: GGGAGUUCUACAGUCCGACGAUCAGAACCAGCCCUGGAUGGCGGGUUUCAGAUGCAUUAUGAGAAGACCCCGUUUGAUCAGUCCGCUUUUAUCGAAGAGCUUUUUUCACUGAUGGUUGUCAAUCGUCUGACCGAAGAACUCGGCAACAGAGGAUUGAGCAUCA
# B9: chr7:29923496:29923595:-|3pUTR|ENSG00000136193|msi1_unk|total|mutant (ssRNA)
# RNA: GGGAGUUCUACAGUCCGACGAUCUCACAGUGCCGAGUUGGCGGGAAAAGCAAAUUCUUUUGAAGUCUCCGUCUUUCCCUCAGCCGCGGUUUCUUUCAGGUUAACAAGAGGCAUUUGUGCACACACACAGGGCUCUUGUGUGUGCAACAGAGGAUUGAGCAUCA
# B10: chr2:149026443:149026544:+|3pUTR|ENSG00000168280|msi1|total|mutant (ssRNA)
# RNA: GGGAGUUCUACAGUCCGACGAUCGUAAAGUGUGUCCUGUGUACUGCAGAUGUGUGUUCUCUGGGCUUUAUGUAUCUGUACAGCCGCUUUCACAUUAAAAAAAUUGUGGACAAACUUGUCCGGGGGGUUUGAGGGGAGAAUGGUCAACAGAGGAUUGAGCAUCA
# B11: chr22:32413844:32414425:-|three_prime_utr|ENSG00000184459|control|control|control (ssRNA)
# RNA: GGGAGUUCUACAGUCCGACGAUCUGUAAACCCAGAAGGGAAAGACAGUACACACUGGAAUUGUAAAGCCCUUGUGAAUUGCUUAGGCAGAAAGUUUUCUUUCUUAAGCCUUCAGGAACCCAGAAUAAGGCAGACUCUGUUAAACAACAGAGGAUUGAGCAUCA
# B12: chr7:83961326:83961382:-|CDS_3pUTR|ENSG00000075213|msi1_unk|FALSE|overlapping (ssRNA)
# RNA: GGGAGUUCUACAGUCCGACGAUCAAACAGGAGGACCCACGAAUUUGAGAGGGCACCCAGGAGUGUCUGAGCUGCAUUACCUCUAGAAACCUCAAACAAGUAGAAACUUGCCUAGACAAUAACUGGAAAAACAAAUGCAAUAUACAACAGAGGAUUGAGCAUCA
# B13: chr4:83462471:83462902:-|CDS|ENSG00000163322|control|control|control (ssRNA)
# RNA: GGGAGUUCUACAGUCCGACGAUCUUCAAGAGAUCUCGGUUGUUAGAUACACAAGACAAACGAUCUAAAGCAGAUACUGGUAGUAGUAACCAAGAUAAAGCAUCCAAAAUGAGCAGCCCAGAAACAGAUGAAGAAAUUGAAAAGCAACAGAGGAUUGAGCAUCA
# B14: chr12:56204332:56204433:-|3pUTR|ENSG00000181852|unk|total|mutant (ssRNA)
# RNA: GGGAGUUCUACAGUCCGACGAUCUUUUGCCUUUCUCUCACCUUAAUUCCCUUUCUUCCUUACUUUGUUACCUACCCUUAUCUCCGUGCUAACUUCUCUUUCAGGAGGAUGUCUGGGAGCCGUGUGCACUUCACAGCUGCUUUCCAACAGAGGAUUGAGCAUCA
# B15: chrX:119243474:119243703:+|3pUTR|ENSG00000101856|msi1|FALSE|unique (ssRNA)
# RNA: GGGAGUUCUACAGUCCGACGAUCGGUAUUUCCCAAAACAGGUAAAAAUCUUAAAUGUGCACCAAGAGCAAAGGAUCAACUUUUAGUCAUGAUGUUCUGUAAAGACAACAAAUCCCUUUUUUUUUCUCAAUUGACUUAACUGCACAACAGAGGAUUGAGCAUCA
# B16: ENSG00000103257:stop:overlap|stop_codon|ENSG00000103257|stop_codon|NA|stop_codon (ssRNA)
# RNA: GGGAGUUCUACAGUCCGACGAUCGCAUCUUCUCCACGACCGUCCUGUGUCAGAAGCUCAUGCAGGUGGUCCCCCAGGAGACAUAGCCAGGAGGCCGAGUGGCUGCCGGAGGAGCAUGCGCAGAGGCCAGUUAAAGUAGAUCACCAACAGAGGAUUGAGCAUCA
# B17: ENSG00000198589:be:win_5101|CDS|ENSG00000198589|bound_else_gene|NA|bound_elsewhere_windowed (ssRNA)
# RNA: GGGAGUUCUACAGUCCGACGAUCCCACCAGCCUGCCUUGGAGCCCUUGGUGAUCUAUCUGUGGAACAACCCGUGCAGUUCAGAUCUUUUGACAGAAGUGUCAUUGUUGCAGCAAAAAAGUCAGCAGUCUCACCUUCCACCUUUCAACAGAGGAUUGAGCAUCA
# B18: chr4:17843545:17843646:+|3pUTR|ENSG00000109805|msi1|FALSE|unique (ssRNA)
# RNA: GGGAGUUCUACAGUCCGACGAUCCUGUGCGCUUCCACGUUACUUUGGCCUGUAUUAAAGCAGUAGAGCAGCAUCAGUUAUUAUAGUCCAGAAAAAGUGUGCAUCAGUCAGUCACACAGAUUUAUCACAAUCUGAGGUGGGCCUCAACAGAGGAUUGAGCAUCA
# B19: chr2:200823707:200823808:+|3pUTR|ENSG00000082153|msi1|FALSE|bound_elsewhere (ssRNA)
# RNA: GGGAGUUCUACAGUCCGACGAUCUGAGUAACUUUGAUAAAGUUUUUCAUGCACAGGCAAAAUGUAUUCACUAGAUUUCUACGUAGUGAUCUGCUUUUACUUUGUAAUUUGUAGUUCUCAAAAGACUUUUUUUUAAAAAAAUAACAACAGAGGAUUGAGCAUCA
# B20: chr20:25297698:25297799:+|3pUTR|ENSG00000100994|msi1|total|mutant (ssRNA)
# RNA: GGGAGUUCUACAGUCCGACGAUCCCCAAGAGAGAGGGCAGGGAACAGGCUACUGUCCUUCCCUGUGGAAUUGCCGAGAAAUCCCGCACCUUGCAUGCUGGAUCUGGGCUGCGGGGAGGCUCUUUUUCUCCCUGGCCUCCAGUGCAACAGAGGAUUGAGCAUCA
# B21: chr21:36753219:36753320:-|3pUTR|ENSG00000159267|msi1|FALSE|bound_elsewhere (ssRNA)
# RNA: GGGAGUUCUACAGUCCGACGAUCGUUUCAGAUUUACUCUGAAAUGUGGAGCAUUCCUGCAAGACUGUGCAGCUCACGGAAUAUAGAAGACAUGGCAUUUUACUCAGAAGUCAUAAGUUUUUGCCCCCCUCAUUUACCUCGUAUCAACAGAGGAUUGAGCAUCA
# B22: ENSG00000070961:be:win_2551|CDS|ENSG00000070961|bound_else_gene|NA|bound_elsewhere_windowed (ssRNA)
# RNA: GGGAGUUCUACAGUCCGACGAUCAGCAUCUCAAAAUUCCUUCAGUUCCAACUUACUGUUAAUGUAGUAGCAGUGAUUGUUGCUUUUACGGGCGCCUGCAUUACUCAAGACUCACCGCUUAAGGCUGUGCAGAUGCUGUGGGUACAACAGAGGAUUGAGCAUCA
# Target: T1, UNK ZnF1-6 (called full-length) (human, UniProt Q9C0B0 30-357)
# T1 sequence: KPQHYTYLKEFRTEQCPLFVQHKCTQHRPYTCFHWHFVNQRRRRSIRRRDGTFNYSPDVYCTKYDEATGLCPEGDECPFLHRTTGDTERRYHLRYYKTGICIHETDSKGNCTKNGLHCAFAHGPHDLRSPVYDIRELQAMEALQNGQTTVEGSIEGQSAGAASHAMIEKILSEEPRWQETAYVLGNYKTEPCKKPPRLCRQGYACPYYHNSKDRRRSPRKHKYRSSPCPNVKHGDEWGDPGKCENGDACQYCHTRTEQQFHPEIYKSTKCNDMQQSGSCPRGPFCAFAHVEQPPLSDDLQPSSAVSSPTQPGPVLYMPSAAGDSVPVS
# Test: nsRBNS (natural sequence RNA bind-n-seq); RBNS binding buffer (assumed for nsRBNS): 25 mM Tris pH 7.5, 150 mM KCl, 3 mM MgCl2, 0.01% Triton X-100, 500 ug/ml BSA, 20 U/ml SUPERase-In, 4 C; UNK is unkempt and MSI1 is Musashi-1; names of the RNAs are library labels; protein concentration not given here; high values mean tight binding
row,Binder,binding signal
1,B1,0.393 enrichment R
2,B2,0.691 enrichment R
3,B3,1.66 enrichment R
4,B4,0.469 enrichment R
5,B5,0.573 enrichment R
6,B6,0.493 enrichment R
7,B7,0.639 enrichment R
8,B8,0.834 enrichment R
9,B9,0.374 enrichment R
10,B10,0.818 enrichment R
11,B11,0.429 enrichment R
12,B12,0.962 enrichment R
13,B13,0.544 enrichment R
14,B14,0.75 enrichment R
15,B15,0.727 enrichment R
16,B16,0.571 enrichment R
17,B17,0.855 enrichment R
18,B18,1 enrichment R
19,B19,0.774 enrichment R
20,B20,0.743 enrichment R
21,B21,0.445 enrichment R
22,B22,0.519 enrichment R

# From paper PMC12136788
